# Data taken from PubChem BioAssay AID686979 (National Center for Advancing Translational Sciences (NCATS), 2013).
# The whole screen tested about 420,000 compounds, of which about 50,000 (12%) were called active. Inconclusive results, whose numbers are uncertain, are shown with a selection of clear calls. Calls follow the shape of the dose curve; as a rule, active = well fitted inhibition curve with a large enough effect; inconclusive = small, poorly fitted or top-dose-only effect; inactive = flat fitted curve, though single readings scatter. No potency is given beside an inconclusive call; the fits are too rough.
# Assay: qHTS for Inhibitors of human tyrosyl-DNA phosphodiesterase 1 (TDP1): qHTS in cells in presence of CPT; also: nearly all actives have a fitted effect of over 55% in size
# Conditions: chicken DT40 Tdp1-/-;hTDP1 cells + 20 nM CPT, ATP luminescence, 48 h; activity change, negative = growth inhibition: at 46.2 µM (top of the series)
# Procedure, shortened: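 Chicken DT40 Tdp1-/- cells complemented with human TDP1, 400 cells/well, exposed to compounds plus 20 nM camptothecin for at least 48 h at 37 C; viability read as ATP content by CellTiter-Glo luminescence.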
# % is scaled to controls: 0 for no effect and ±100 for the full control effect; potency is read from the fitted curve at half-maximal effect; tags tell the direction and shape of the fitted curve.
Compound,"activity change, negative = growth inhibition",Potency
COCCNC(=S)N/N=C(\C)c1cccc(OC)c1,inactive: 13.2%,
CC(=O)NC1=NC(=O)/C(=C/c2cc(C)n(-c3cccc(C(=O)O)c3)c2C)S1,inactive: 1.51%,
CCCCNc1nc(-c2ccccc2)cc(C(F)(F)F)c1C(N)=O,,"inconclusive [inhibitor, partial curve]"
COc1ccc(OC)c(C2C(C(=O)c3ccc(C)o3)=C(O)C(=O)N2c2cc(C)on2)c1 (stereo not drawn),,"inconclusive [inhibitor, single point]"
O=C(NCCCc1ccncc1)C1CCC(=O)N(CCc2cccc(F)c2)C1 (stereo not drawn),inactive: -0.0433%,
COc1cc(OC)c2c(-c3cccc(-c4ccc(C#N)cc4)c3)cc(=O)oc2c1,,active: 2.06 µM
CN1CCN(C2=Cc3ccccc3Sc3cc(F)c(Cl)cc32)CC1,,"inconclusive [inhibitor, single point]"
COCCNC(=S)NNC(=O)c1ccc(-n2cnnn2)cc1,inactive: 8.37%,
CCOC(=O)C1CCCN(Cc2c(Cl)cccc2Cl)C1 (stereo not drawn),,"inconclusive [inhibitor, single point]"
CCN(CC)S(=O)(=O)c1cccc(-n2c(O)c(C=Nc3ccccc3C(=O)O)c3ccccc3c2=O)c1,,active: 4.11 µM
CC(=O)/C(=N/Nc1ccc([N+](=O)[O-])cc1)N1CCCc2ccccc21,,"inconclusive [inhibitor, single point]"
Cc1cccc(C)c1NC(=O)C1(C)CN(S(C)(=O)=O)CC(=O)N1Cc1ccc2c(c1)OCO2 (stereo not drawn),inactive: -2.71%,
COc1ccc(N2CCN(C(=O)Cn3cnc4sc(C)c(S(=O)(=O)N5CCCCC5)c4c3=O)CC2)cc1,,"inconclusive [inhibitor, single point]"
COc1ccc(OC)c(C(=O)c2ccccc2)c1,inactive: -11.7%,
CCOC(=O)c1c(-c2ccc(C)cc2)csc1NC(=O)/C(C#N)=C/c1ccc(O)c(OC)c1,,"inconclusive [inhibitor, single point]"
CCN1CCN(c2ccccc2NC(=O)C(C)Oc2ccc(C(C)=O)cc2)CC1 (stereo not drawn),inactive: -27.5%,
COc1ccc(NC(=O)CCc2c(C)nn(-c3ccc(N4CCCC4)nn3)c2C)cc1Cl,,"inconclusive [inhibitor, single point]"
Cn1c2ccccc2c(=O)c2c(=O)n(Cc3ccco3)c(COc3ccccc3)nc21,,active: 18.4 µM
CCc1ccc(C(=O)c2oc3nc(C)cc(C)c3c2N)cc1,,"inconclusive [inhibitor, partial curve]"
Cc1ccc(C(=O)OCC(=O)Nc2cc(C(C)(C)C)nn2-c2ccccc2)c(O)c1,,"inconclusive [inhibitor, single point]"
Cc1ccc(CNC(=S)NCc2ccncc2)cc1,,"inconclusive [inhibitor, single point]"
COc1cccc2cc(C(=O)Nc3cccnc3N3CCOCC3)c(=O)oc12,,"inconclusive [inhibitor, single point]"
Nc1nn(S(=O)(=O)c2cccc3nsnc23)cc1-c1ccc(Br)cc1,,"inconclusive [inhibitor, single point]"
CC(=O)c1c(C(C)=O)c(C)n(Cc2ccccc2)c1C,inactive: -18.8%,
O=C(N/N=C/c1cccc(OCc2ccccc2)c1)c1ccc(Br)o1,,"inconclusive [inhibitor, single point]"

Compound,"activity change, negative = growth inhibition",Potency
ON/C=N/C(=S)Nc1ncc(C(F)(F)F)cc1Cl,,active: 14.6 µM
O=C(CSc1cn(CCNC(=O)c2ccccc2F)c2ccccc12)Nc1ccc2c(c1)OCCO2,,active: 23.1 µM
O=C(O)C1CCCCN1c1ccccc1[N+](=O)[O-] (stereo not drawn),inactive: 0.573%,
NC(=O)C1CCN(C2CC(=O)N(c3cccc(F)c3)C2=O)CC1 (stereo not drawn),,"inconclusive [inhibitor, single point]"
CS(=O)(=O)c1ccc2nc(NC(=O)c3cccs3)sc2c1,,active: 11.6 µM
CC(=O)c1ccc(S(=O)(=O)N(C)CCCC(=O)N(C)Cc2c(F)cccc2Cl)cc1,,"inconclusive [inhibitor, single point]"
O=P(O)(O)C(O)(Cc1cnc2ccccn12)P(=O)(O)O,,"inconclusive [inhibitor, partial curve, poor fit]"
CCOC(=O)C1=C(CC)Nc2ccccc2N=C1NC(=O)c1ccc(S(=O)(=O)N(C)C)cc1,,active: 7.31 µM
COCCn1c(C)cc(O)c(C(c2ccccc2)N2CCN(c3ccccc3F)CC2)c1=O (stereo not drawn),inactive: -10.6%,
O=C(C1CCC1)N1CCc2cc(S(=O)(=O)NCCCN3CCCCC3)ccc21,inactive: -10.7%,
COc1ccc(N2CCN(C(=O)CCNS(=O)(=O)c3ccc(Br)s3)CC2)cc1,,active: 13 µM
CC(C)(C)c1cc(NC(=O)Nc2ccccc2OC(F)(F)F)no1,,"inconclusive [inhibitor, single point]"
O=c1nc(/C=C/c2ccccc2C(F)(F)F)cc(C(F)(F)F)[nH]1,inactive: -11%,
O=C(COC(=O)CCSc1ccccc1Cl)NCc1ccco1,inactive: -6.34%,
C=CCc1ccc(O)c(-c2ccc(O)c(CC=C)c2)c1,,"inconclusive [inhibitor, single point]"
C=CCn1c(=O)c2c(nc3n2CC(C)CN3CCc2ccccc2)n(C)c1=O (stereo not drawn),,"inconclusive [inhibitor, single point]"
CN(C(=O)c1ccc(NC(=O)Cc2ccc(NC(=O)C3CCN(C(=O)C4CCCCC4)CC3)cc2)cc1)C1CCCC1,,"inconclusive [inhibitor, single point]"
O=C(c1ccc(NS(=O)(=O)c2ccc(Cl)c(Cl)c2)cc1)N1CCOCC1,inactive: 2.82%,
O=C1CSC(=S)N1c1cccnc1,,"inconclusive [inhibitor, single point]"
CCN(CC)S(=O)(=O)c1ccc(C)c(NC(=O)/C=C/c2cccs2)c1,,active: 20.6 µM
COc1ccc(Cl)cc1CNC[C@H]1O[C@@H](n2cnc3c(=O)[nH]c(N)nc32)[C@H](O)[C@@H]1O,inactive: -13.5%,
COC(=O)c1ccc2c(=O)n(CCCCCC(=O)NCCNC(C)=O)c(=O)[nH]c2c1,,"inconclusive [inhibitor, single point]"
CC(=O)Nc1cc(-c2cccnc2)cn2c(-c3ccc(F)cc3)cnc12,,"inconclusive [inhibitor, single point]"
O=C1c2ccccc2C(=O)N1c1nc2nccc(-c3ccccc3)n2n1,,"inconclusive [inhibitor, partial curve]"
Cc1cccc(NS(=O)(=O)c2cccc(C(=O)NCC(C)(C)N3CCOCC3)c2)c1,,"inconclusive [inhibitor, single point]"

Compound,"activity change, negative = growth inhibition",Potency
O=S(=O)(NN=C1CCCCCCC1)c1ccccc1,inactive: -24.3%,
Cc1ccc(NC(=O)CNC(=O)c2ccco2)nc1,inactive: 0.617%,
O=C(CS(=O)(=O)c1cn(Cc2ccc(Cl)cc2)c2ccccc12)N1CCOCC1,,"inconclusive [inhibitor, single point]"
NC(=O)c1cc(-c2ccccc2)nc2ccc(Br)cc12,inactive: 9.28%,
CCN(CC(=O)NC1CCS(=O)(=O)C1)c1nc(-c2ccccc2)nc2ccccc12 (stereo not drawn),inconclusive: -30.6% [inhibitor],
Cc1nn(C(C)C(=O)NCCCN2CCCCCC2)c(=O)c2cc3sccc3n12 (stereo not drawn),,"inconclusive [inhibitor, single point]"
Cc1cccc(C(=O)N2CCN(Cc3ccc4c(c3)OCO4)CC2)c1,,"inconclusive [inhibitor, single point]"
Cc1cc(C)cc(N(CC(=O)Nc2ccc(Br)cc2)S(=O)(=O)c2c(C)[nH]c(=O)[nH]c2=O)c1,inactive: 8.58%,
CC1CCCCC12NC(=O)N(CC(=O)Nc1ccccc1-c1ccccc1)C2=O (stereo not drawn),inactive: -6.35%,
COCCCNc1nc2ccccc2nc1NS(=O)(=O)c1ccc(Cl)cc1,,"inconclusive [inhibitor, partial curve]"
CC(=O)Oc1ccc2ccccc2c1C(NC(=O)Cc1ccccc1)c1ccccc1Cl (stereo not drawn),,"inconclusive [inhibitor, single point]"
Cc1ccc(S(=O)(=O)C2(C(=O)Nc3nccs3)CC2)cc1,,"inconclusive [inhibitor, single point]"
Cc1ccc(SC(CC(=O)c2ccc(C(C)(C)C)cc2)C(=O)O)cc1 (stereo not drawn),,active: 3.66 µM
CN(C)S(=O)(=O)c1cccc(COC(=O)c2cccnc2Cl)c1,inconclusive: -33% [inhibitor],
COc1cccc(NC(=O)CSc2cc(C)c3ccccc3n2)c1,inconclusive: -30.9% [inhibitor],
CC(=O)C1=C(O)C(=O)N(Cc2ccccc2)C1c1ccco1 (stereo not drawn),inactive: 3.55%,
CN(/N=C/c1ccc(O)cc1O)c1nc(-c2ccccc2)cc(-c2ccccc2)n1,,active: 20.6 µM
CCN(C(=O)COC(=O)c1cc(S(=O)(=O)Nc2c(C)n(C)n(-c3ccccc3)c2=O)ccc1Cl)C1CCCCC1,inactive: 0.0266%,
Cc1ccc2c(Sc3ccc(Cl)cc3)c(C(=O)N3CCCCC3)[nH]c2c1,,"inconclusive [inhibitor, single point]"
O=C(NCc1ccccn1)C1CCN(C2CCN(Cc3cccc(F)c3)CC2)CC1,inactive: -19%,
CCN(CC)C(=O)CSc1nc(O)c(Cc2ccc(OC)cc2)c(=O)[nH]1,inactive: -8.06%,
COc1ccc(C(CCN2CCCC2)c2c(OC)cc(OC)c3c(-c4ccccc4)cc(=O)oc23)cc1 (stereo not drawn),,"inconclusive [inhibitor, single point]"
O=C(NCc1ccccc1)c1onc(CSc2nc3ccccc3[nH]2)c1C(=O)NCc1ccccc1,,"inconclusive [inhibitor, single point]"
